Test system: 48-kDa fragment (amino acid 773-928) of pRb
Assay: pRb kinase assay on HEK293T cell extract bound to streptavidin-coated sepharose beads
Format: biochemical
Details: transiently transfected HEK293T cells, P-Rb T826 immunoblot
Protocol: In order to verify if the transgenes expressed in HEK293T cells after transient transfection could be immobilized on streptavidin-coated sepharose bead and were enzymatically active, HEK293T cells were cultivated and transfected with the indicated plasmids as described in Example 12.
After transfection, cells were washed with PBS and lysed on ice in 1 ml NP-40 lysis buffer as described in Example 11. The homogenized (glass/glass) cellular lysate was sonicated 3 times and stored at −20° C. […] After 3 h, beads bound with transgene are washed three times with cold NP-40 lysis buffer without inhibitors before enzymatic activities are measured.
The pRb kinase assay was performed on the cellular extract bound to the streptavidin-coated sepharose beads as described previously (Coulonval et al., 2003, Exp. Cell Res., 291, 135-149). […] Proteins were resolved by SDS-PAGE and transferred on PVDF membranes (Perkin Elmer) before the phosphorylation on T826 of the pRb fragment was detected using the phosphor-specific pRb (T826) antibody (Thermo Fisher). […]
The pRb kinase assay was performed on the cellular extract bound to the streptavidin-coated sepharose beads (GE Healthcare) as described previously (Coulonval et al., 2003, Exp. Cell Res., 291, 135-149). […] Total GST-Rb load of the membranes was quantitated using the mouse anti-GST antibody (Pierce). […]

B1: D1L1K4: cyclin D1 and CDK4 connected by the linker L1, SEQ ID NO. 7 (protein)
chain: [about 300 residues not given here]ASKGGGGSGGGGSGGGGSMATSRYEPVAEIGVGAYGTVYKARDPHSGHFVALKSVRVPNGGGGGGGLPISTVREVALLRRLEAFEHPNVVRLMDVCATSRTDREIKVTLVFEHVDQDLRTYLDKAPPPGLPAETIKDLMRQFLRGLDFLHANCIVHRDLKPENILVTSGGTVKLADFGLARIYSYQMALTPVVVTLWYRAPEVLLQSTYATPVDMWSVGCIFAEMFRRKPLFCGNSEADQLGKIFDLIGLPPEDDWPRDVSLPRGAFPPRGPRPVQSVVPEMEESGAQLLLEMLTFNPHKRISAFRALQHSYLHKDEGNPE
With B1 the “Rb kinase activity of the immobilized fusion protein” value was “active”.

Source: patent US20150299764A1, “IMMOBILISED CYCLIN-DEPENDENT KINASE 4 FUSION PROTEINS AND USES THEREOF” (UNIVERSITE LIBRE DE BRUXELLES, priority 2012, published 2015)
